# The whole screen tested about 310,000 compounds, of which about 14,000 (4.5%) showed an effect of 50% or more. Effects have a minus sign here. The list shows a part of the results.
# Target: human ether-à-go-go-related gene (hERG) potassium channel (human, UniProt Q12809)
# Assay: primary screen, population patch clamp on CHO cells stably expressing hERG
# 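Note: peak tail current of the secondary pulse compared with the same well before compound.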
# human ether-à-go-go-related gene (hERG) potassium channel, sequence (Q12809 whole entry, looked up): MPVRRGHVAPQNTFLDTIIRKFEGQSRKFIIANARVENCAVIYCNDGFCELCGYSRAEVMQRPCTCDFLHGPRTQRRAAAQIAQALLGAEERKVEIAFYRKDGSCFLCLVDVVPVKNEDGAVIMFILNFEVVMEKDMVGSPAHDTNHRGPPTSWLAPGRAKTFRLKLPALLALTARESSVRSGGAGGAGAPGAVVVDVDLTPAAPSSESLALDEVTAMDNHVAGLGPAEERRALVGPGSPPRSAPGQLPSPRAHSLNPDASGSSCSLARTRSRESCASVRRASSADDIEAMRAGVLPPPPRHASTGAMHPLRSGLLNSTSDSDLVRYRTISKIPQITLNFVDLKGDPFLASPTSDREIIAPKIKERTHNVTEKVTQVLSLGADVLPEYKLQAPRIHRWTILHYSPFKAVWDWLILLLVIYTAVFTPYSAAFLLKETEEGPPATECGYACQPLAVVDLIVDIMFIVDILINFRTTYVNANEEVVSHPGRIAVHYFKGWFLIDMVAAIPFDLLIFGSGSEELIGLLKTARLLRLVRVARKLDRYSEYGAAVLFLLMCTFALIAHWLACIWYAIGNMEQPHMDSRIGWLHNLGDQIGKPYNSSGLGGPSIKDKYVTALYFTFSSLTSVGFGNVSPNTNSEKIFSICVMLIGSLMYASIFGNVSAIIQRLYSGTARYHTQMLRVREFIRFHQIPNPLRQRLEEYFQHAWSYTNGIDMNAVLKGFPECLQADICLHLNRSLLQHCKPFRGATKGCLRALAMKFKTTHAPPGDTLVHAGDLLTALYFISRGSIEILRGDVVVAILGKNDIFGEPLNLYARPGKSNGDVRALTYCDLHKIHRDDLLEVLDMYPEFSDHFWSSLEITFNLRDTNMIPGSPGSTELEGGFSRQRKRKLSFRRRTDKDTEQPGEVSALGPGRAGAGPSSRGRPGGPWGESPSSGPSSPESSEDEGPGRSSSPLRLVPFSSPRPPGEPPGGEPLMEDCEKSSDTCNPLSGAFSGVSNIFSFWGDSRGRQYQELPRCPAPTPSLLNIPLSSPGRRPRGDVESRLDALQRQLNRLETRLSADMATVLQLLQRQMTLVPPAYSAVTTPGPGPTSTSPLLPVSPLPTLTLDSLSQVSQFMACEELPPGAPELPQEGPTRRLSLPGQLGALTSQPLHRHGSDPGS
row,SMILES,"hERG current change (%, negative = inhibition) at 10uM"
1,Cc1nn(C)cc1C(C(=O)NC1CCCCC1)N(Cc1ccccc1Cl)C(=O)c1cnccn1 (stereo not shown),-5.97%
2,Cc1ccc(CN2CCN(/N=C/c3cc(Br)ccc3F)CC2)cc1,21.8%
3,COc1cccc(CNC(=O)c2csc3c2CCCC3)c1,-6.85%
4,N#Cc1c(Cl)cccc1N1CCCC1,-9.9%
5,C/C(=N/NC(=O)CCc1ccccc1)c1ccc2c(c1)OCO2,17.9%
6,Cc1cccc(N2C(=O)C(O)=C(C(=O)c3cccs3)C2c2ccc(Cl)cc2)n1 (stereo not shown),0.613%
7,CSCCC1NC(=O)N(CC(=O)Nc2cc(C)on2)C1=O (stereo not shown),6.58%
8,CCOC(=O)c1ccc(CN(Cc2ccccc2)S(=O)(=O)c2cccc([N+](=O)[O-])c2)cc1,18.7%
9,COc1cccc(NC(=O)CN(C)C(=O)/C=C/c2ccc3ccccc3n2)c1,5.08%
10,O=c1c2ccccc2nc(CSc2nnnn2-c2ccccc2)n1-c1cccc(C(F)(F)F)c1,4.15%
11,CC(=O)N/C(=C/c1ccc2c(c1)OCO2)C(=O)NCc1ccccc1,18.7%
12,CCOc1ccc(-c2nn(-c3ccccc3)cc2/C=C(\C#N)S(=O)(=O)c2ccccc2)cc1C,8.69%
13,Nc1cc(=O)nc(SCC(=O)Nc2ccccc2)n1-c1ccccc1,25.5%
14,COC(=O)CCC(=O)N1CCc2cc(S(=O)(=O)N3CCc4ccccc43)ccc21,-8.24%
15,COc1cccc(C(C(=O)NCC2CCCO2)N(CC2CCCO2)C(=O)CN2C(=O)c3ccccc3S2(=O)=O)c1 (stereo not shown),19.1%
16,CCc1ncc(CN2CCCC(C(=O)Nc3cccc(-c4cccc(C)c4)c3)C2)cn1 (stereo not shown),-48.8%
17,CN(C)Cc1c(O)ccc2c3c(c(=O)oc12)CCCCC3,3.55%
18,Cc1ccc(NNC(=O)c2snnc2C)cc1Cl,-0.415%
19,O=C(Nc1cc2nn(-c3ccccc3)nc2cc1Cl)c1ccco1,17.3%
20,Oc1ccccc1N1CCN(c2nnnn2-c2ccccc2)CC1,-0.8%
21,O=C(COC(=O)c1ccc(S(=O)(=O)NCc2ccco2)cc1)c1ccccc1,0.339%
22,Cc1ccc(C(=O)N2CCCc3ccccc32)c(F)c1F,8.43%

row,SMILES,"hERG current change (%, negative = inhibition) at 10uM"
1,O=C(CNC(=S)N(Cc1ccc(F)cc1)C1CCCCC1)NCC1CCCO1 (stereo not shown),-4.2%
2,CCCn1ncc(CN2CCN(Cc3ccsc3)C(CCO)C2)c1C (stereo not shown),-5.55%
3,Cc1ccc2ncnc(Nc3cccc([N+](=O)[O-])c3)c2c1,-44.4%
4,COC(=O)c1cc(COc2ccc3c4c(c(=O)oc3c2)CCC4)c(C)o1,4.68%
5,COC(=O)c1ccc(NC(=O)CCS(=O)(=O)c2ccc3c(c2)NC(=O)C(C)S3)cc1 (stereo not shown),11.7%
6,CN(C(=O)CC1C(=O)NCCN1Cc1c(F)cccc1Cl)C1CCOCC1 (stereo not shown),17.9%
7,COc1ccc(Cn2nnnc2CN2CCc3ccccc32)cc1,4.01%
8,Cc1cc(S(=O)(=O)NCCCN2CCOCC2)c(C)cc1Cl,-13.9%
9,O=C(CCCOc1ccccc1)Nc1cc(S(=O)(=O)N2CCOCC2)ccc1N1CCOCC1,-39.1%
10,COc1ccc(NC(=O)c2ccc(-c3ccc(OC)cc3)s2)cc1,11.4%
11,COc1cc(C(C(=O)NCC2CCCO2)N(C(=O)Cn2nnc3ccccc32)c2ccc(OC)c(OC)c2)ccc1O (stereo not shown),18.4%
12,Cl.O=C(O)c1ccc(CNCc2ccc(Cl)cc2Cl)cc1,18.7%
13,CCn1cc([N+](=O)[O-])c(C(=O)Nc2ccn(Cc3ccccc3)n2)n1,-3.52%
14,CCC(C)(C)NCC(=O)Nc1ccc(OC(F)(F)F)cc1,-32.7%
15,CSc1ncccc1C(=O)OCC(=O)Nc1cc(C(F)(F)F)ccc1N1CCOCC1,-20.2%
16,CC(=O)c1cccc(CN2CCN(C(C)C)C(CCO)C2)c1 (stereo not shown),8.34%
17,COc1ccc2c3n(nc2c1)CCN=C3c1cc(Cl)c(N)c(Cl)c1,-1.63%
18,CCOC(=O)c1c(/N=C/C2C(=O)CC(C)(C)CC2=O)sc(C)c1C,-4.77%
19,Cc1cccc(C(=O)OC(C)CN2C(C)CCCC2C)c1.Cl (stereo not shown),-21%
20,CC1CCCCC12NC(=O)N(CC(=O)OCC(=O)N(C)C1CCCCC1)C2=O (stereo not shown),1.66%
21,CCCCN(C)C(=O)CNC(=O)c1nn(-c2ccc(OC)cc2OC)c(=O)c2ccccc12,9.79%
22,O=C(N/N=C/c1ccc(Cl)cc1)C1CC12CCC2 (stereo not shown),3.14%

row,SMILES,"hERG current change (%, negative = inhibition) at 10uM"
1,NS(=O)(=O)c1ccccc1NC(=S)Nc1ccccc1S(N)(=O)=O,8.87%
2,COc1ccc(C(=O)CSc2n[nH]c(-c3ccco3)n2)cc1,4.1%
3,O=[N+]([O-])c1cccc(-c2ccc3nnc(SCc4ccccn4)n3n2)c1,-33.5%
4,COc1ccc(S(=O)(=O)N(C)c2ccc(C(=O)NC3CC3)cc2)cc1,-12.6%
5,FC(F)(F)c1ccccc1NC(=S)NN1CCOCC1,14%
6,O=C(COc1ccc([N+](=O)[O-])cc1)Nc1cccc2nsnc12,9.19%
7,CCn1c(SCC(=O)Nc2nnc(C)s2)nc2c(c1=O)SC(C)C2 (stereo not shown),11.1%
8,COc1ccccc1C(=O)Nc1cccc2c1CCCC2,11.9%
9,CCOC(=O)c1ccccc1CN1C(=O)c2ccccc2S1(=O)=O,-11.1%
10,CCn1c(CSc2nnc(-c3ccc4c(c3)OCO4)o2)nc2cc(S(=O)(=O)N(C)C)ccc21,-24.9%
11,N#CC1(C#N)C2=C(CCCC2)NC(c2ccccc2)C1(C#N)C#N (stereo not shown),7.46%
12,O=C(C1=NNC2C(=O)N(c3ccccc3)C(=O)C12)c1nc(Cl)ccc1Cl (stereo not shown),0.639%
13,O=C(NC1CCCC1)C(c1ccncc1)N(C(=O)Cc1cccs1)c1ccc(F)cc1 (stereo not shown),7.57%
14,CC(C)C(NS(=O)(=O)c1cccc2nsnc12)C(=O)NC1CCCCC1 (stereo not shown),5.4%
15,N#CC(c1ccccn1)(c1ncc(C(F)(F)F)cc1Cl)N1CCOCC1 (stereo not shown),-3.15%
16,COc1cc(C(=O)Nc2ccc(N(C)C)cc2)cc(OC)c1OC,3.71%
17,N#CCc1ccccc1C(=O)OCC(=O)N(Cc1ccccc1)Cc1ccccc1,-52.1%
18,CC(=O)Nc1cccc(C(=O)/C=C/c2ccc(/C=C/C(=O)c3cccc(NC(C)=O)c3)cc2)c1,-9.63%
19,CN(C)c1ccc2c3c(cccc13)C(=O)N(c1ccccc1)C2=O,15.5%
20,O=C(COc1ncnc2ccccc12)NC1CCS(=O)(=O)C1 (stereo not shown),10.6%
21,CC(C)CCSc1cc(NCCO)c([N+](=O)[O-])c2nonc12,-5.61%
22,C=CCN(C(=O)CNC(=O)c1ccco1)C(C(=O)NC1CCCC1)c1cccs1 (stereo not shown),9.37%

row,SMILES,"hERG current change (%, negative = inhibition) at 10uM"
1,COc1ccc(S(=O)(=O)NCc2cccnc2)cc1Br,-13.6%
2,N/C(=N\OC(=O)c1ccccc1Cl)c1ccccn1,14.5%
3,CC(=O)Oc1ccc([N+](=O)[O-])cc1N1C(=O)c2ccccc2C1=O,7.88%
4,COc1cccc(C(=O)O/N=C(\N)Cc2ccc(Cl)cc2)c1,-22%
5,CCOc1ccc(CN2CCCC(CNC(=O)c3ccc(F)cc3)C2)cc1CO (stereo not shown),-68.1%
6,Cc1cc(C)n(-c2ccc(C(=O)OCC(=O)NC(c3ccccc3)c3ccccc3)cc2)n1,43.2%
7,CCC(=O)c1ccc(OCC(=O)OCC(=O)c2c(N)n(C)c(=O)n(C)c2=O)cc1,5.93%
8,CCn1cc(C(=O)N2CCN(c3ccccn3)CC2)c(=O)c2cc(S(=O)(=O)N(C)C3CCCCC3)ccc21,-63.1%
9,C=CCSc1nnc(NC(=O)c2c(CC)noc2C)s1,0.691%
10,O=C(CCn1c(=O)oc2cc(Cl)ccc21)Nc1ccc(N2CCOCC2)cc1,7.91%
11,CC[C@@]12C(=O)N(c3ccc(C)cc3)C(=O)N1[C@H](c1cccc(C)c1)[C@@H]1C(=O)N(Cc3ccccc3)C(=O)[C@@H]12,16%
12,COc1ccccc1-c1nn(Cc2ccccc2)cc1C(=O)N1CCN(c2ncccn2)CC1,-10.3%
13,CN(C)CC(C)(C)NS(=O)(=O)c1ccc(Cl)cc1,-2.3%
14,COc1ccc(-c2cc(C(=O)NNC(=O)c3csc(N4CCOCC4)n3)c3ccccc3n2)cc1,-3.66%
15,COc1cc(/C=N/NC(=O)CCN2CCN(c3ccccc3)CC2)cc(OC)c1OC,-22.2%
16,COc1ccc(-n2c(=O)c3ccccc3c3ccccc3c2=O)c(OC)c1,6.64%
17,CCCC(CCC)C(=O)OC1C[C@H]2CC[C@@H](C1)[N+]2(C)C.[Br-] (stereo partly shown),2.03%
18,COc1ccccc1N(CC(=O)N1CCCCCC1)S(=O)(=O)c1ccc(C)cc1,-20.9%
19,CCN(C(=O)c1cc2c(=O)[nH]c3ccc(C)cc3c2s1)c1cccc(C)c1,-0.235%

# Reference: PMC4336329 (PLoS ONE, 2015)
